Test results from the supplement of paper PMC9446081.
The whole screen tested about 39,000 compounds, of which about 220 (0.56%) showed activity. This is one part of the list.

What follows are molecules tested on Escherichia coli K-12 BW25113 (assay: relative growth (OD600 normalised to plate interquartile mean) (fraction); higher = less growth inhibition, active = 0.2 or less). Details: 50 µM; LB; incubation time: overnight (16-24 h).
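Note: static incubation at 37 °C against the wild-type strain, values averaged over two biological replicates.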

Compound | relative growth
COc1ccc2c3c([nH]c2c1)[C@H](CO)N(CC1CCCCC1)C[C@]13CCN(CC1)C(=O)NC1CCCC1 | inactive: 1.04
Cc1noc(C)c1NC(=O)N(C)C[C@@H]1Oc2ccc(NC(=O)NC(C)C)cc2C(=O)N([C@H](C)CO)C[C@H]1C | inactive: 0.987
C[C@@H]1CN([C@H](C)CO)C(=O)c2cc(NC(=O)c3ccccc3)ccc2O[C@@H](C)CCCCO[C@@H]1CN(C)Cc1ccccc1 | inactive: 0.999
COc1ccc(S(=O)(=O)Nc2ccc3c(c2)C(=O)N([C@H](C)CO)C[C@H](C)[C@@H](CN(C)C(=O)Nc2ccccc2)OCCCC[C@H](C)O3)cc1 | inactive: 1.02
CO[C@@H]1CN(C)C(=O)c2ccc(NS(=O)(=O)c3cn(C)cn3)cc2OC[C@H](C)N(CCC(F)(F)F)C[C@@H]1C | inactive: 1.02
COc1ccc(-c2cnc3c(c2)C(=O)N([C@H](C)CO)C[C@@H](C)[C@H](CN(C)C(=O)Cc2ccncc2)O3)cc1 | inactive: 0.972
C[C@H]1CN([C@@H](C)CO)C(=O)Cc2cc(NC(=O)C3CCCCC3)ccc2O[C@@H]1CN(C)Cc1ccc(C(F)(F)F)cc1 | inactive: 1.04
C[C@@H]1CN([C@H](C)CO)C(=O)Cc2cc(NS(=O)(=O)c3ccccc3)ccc2O[C@H]1CN(C)S(=O)(=O)c1ccccc1 | inactive: 0.993
NNC(=O)Oc1ccccc1 | inactive: 0.945
COc1ccc(NC(=O)N(C)C[C@@H]2OCCCC[C@H](C)Oc3ccc(NS(=O)(=O)c4ccc(Cl)cc4)cc3C(=O)N([C@H](C)CO)C[C@@H]2C)cc1 | inactive: 1
CCNC(=O)[C@@H]1[C@@H](CO)[C@@H]2Cn3c(ccc(-c4ccc(OC)cc4)c3=O)[C@H]1N2S(C)(=O)=O | inactive: 1.03
Cc1nc2sccn2c(=O)c1CCN1CCC(=C(c2ccc(F)cc2)c2ccc(F)cc2)CC1 | inactive: 1.07
C[C@@H]1CN([C@@H](C)CO)C(=O)c2cc(NS(C)(=O)=O)ccc2O[C@H]1CN(C)C(=O)Nc1ccc(C(F)(F)F)cc1 | inactive: 0.919
COC(=O)N[C@H](C(=O)N1CCC[C@H]1c1nc(-c2ccc(-c3ccc(-c4c[nH]c([C@@H]5CCCN5C(=O)[C@@H](NC(=O)OC)C(C)C)n4)cc3)cc2)c[nH]1)C(C)C | inactive: 1.01
CN(C)CCCNC(=O)C[C@H]1CC[C@H]2[C@H](COc3ccc(NC(=O)NC4CCCC4)cc3C(=O)N2C)O1 | inactive: 0.997
O=C(CCCCCCC(=O)N/N=C/[C@H](O)[C@H](O)[C@@H](O)[C@@H](O)CO)NO | inactive: 0.999
